The supplement of paper PMC3334620
Over roughly 33,000 sequences, “E-score (-0.5 to 0.5)” has its median near -0.012; the highest 2% begin near 0.29. The list shows a part of the results.

Biological target: T1, Ybr033w (UniProt P38073)
T1 sequence: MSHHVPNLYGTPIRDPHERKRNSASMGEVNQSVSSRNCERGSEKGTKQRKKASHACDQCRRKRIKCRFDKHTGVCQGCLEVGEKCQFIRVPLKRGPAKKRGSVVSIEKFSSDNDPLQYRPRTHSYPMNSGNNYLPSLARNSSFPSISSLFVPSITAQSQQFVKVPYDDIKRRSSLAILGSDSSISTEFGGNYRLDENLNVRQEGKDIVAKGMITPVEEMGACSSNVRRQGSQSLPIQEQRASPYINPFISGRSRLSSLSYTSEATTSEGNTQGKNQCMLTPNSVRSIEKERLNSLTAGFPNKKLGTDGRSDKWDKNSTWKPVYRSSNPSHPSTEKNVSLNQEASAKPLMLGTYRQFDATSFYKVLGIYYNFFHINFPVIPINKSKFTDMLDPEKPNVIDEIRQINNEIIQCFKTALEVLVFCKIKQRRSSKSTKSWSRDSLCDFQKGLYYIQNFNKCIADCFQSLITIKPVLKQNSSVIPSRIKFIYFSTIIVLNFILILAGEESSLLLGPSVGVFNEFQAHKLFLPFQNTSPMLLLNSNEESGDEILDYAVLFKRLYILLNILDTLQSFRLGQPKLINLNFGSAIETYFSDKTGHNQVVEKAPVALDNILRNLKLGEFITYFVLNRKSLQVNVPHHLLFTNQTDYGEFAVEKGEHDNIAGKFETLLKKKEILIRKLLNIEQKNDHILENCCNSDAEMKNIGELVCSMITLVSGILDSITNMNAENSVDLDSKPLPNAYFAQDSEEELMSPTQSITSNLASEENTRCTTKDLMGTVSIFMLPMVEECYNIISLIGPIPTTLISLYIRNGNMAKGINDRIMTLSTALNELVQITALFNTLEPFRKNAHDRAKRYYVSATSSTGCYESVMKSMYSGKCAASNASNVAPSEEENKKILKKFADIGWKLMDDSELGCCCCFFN
Test: PBM E-score (8-mer binding enrichment) (E-score (-0.5 to 0.5)); higher = stronger / more preferred TF binding; most listed sequences are background and not binding sites
Conditions: protein concentration: 200 nM; construct: GST-full length
Method in brief: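 Masliner-normalised scans of fluorescent anti-GST signal were the basis for scoring. That signal came from GST-tagged yeast transcription factors applied at about 100-200 nM to double-stranded universal all-10-mer Agilent arrays on fresh or once-stripped slides. Each ungapped eight-base word, pooled with its reverse complement, received an E-score from the Universal PBM Analysis Suite.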

Sequence | PBM E-score
TATCTAAA | 0.103
AAAAAGCC | 0.126
AGATTGTA | 0.2
ATGGGGAG | -0.00442
GGTTTCGA | 0.0406
CAGGGCAC | -0.0829
GCAGTACC | 0.0191
TACACGGA | 0.17
GCCACAGC | -0.153
ATCTGTAG | 0.0631
AAGCGACG | -0.285
AACTCAAA | 0.228
GTAGGTGA | -0.106
CGTAAGCC | 0.0973
TCAGATGA | 0.0933
AGTAATAG | 0.218
AGGGGCCA | -0.189
CTCGACTA | -0.142
CGATGGCC | -0.119
AAAACGTC | 0.102
CACATCGC | -0.228
TATGTACA | 0.00907
GTCAAAAC | 0.025
GATAGTAA | 0.19
AGGCCCGC | -0.196

Sequence | PBM E-score
AAAGCCAC | 0.0888
CCCACTAG | -0.361
GTGAGCTA | -0.00306
TGCATCAA | 0.272
GGCGCATA | 0.0428
ATATAAAG | 0.211
CTCTGAAG | -0.113
CATGAGAC | -0.0524
ACTGCCTC | -0.0835
CAAGACCG | -0.0876
AACCGTCT | -0.146
TGGCCTAA | -0.088
ATCATCCA | 0.122
TGGCATAA | 0.21
CGACATAG | -0.0646
GGGGCGAC | -0.284
TCCTGCAA | -0.00079
CGTACGCA | -0.211
CTGGAGAC | -0.0559
TGACTGCA | -0.239
AAAGGACG | -0.0775
AAAAATTG | 0.221
TAGAAGAA | 0.0772
CGCCATAC | -0.0342
CCGAAGTA | 0.113

Sequence | PBM E-score
AGTTTTAT | 0.214
CAAATAAC | 0.214
AATCAACT | 0.183
ACATCGCC | -0.102
CGTTCTTA | 0.0158
CAATGCCA | 0.0533
AACCATTC | 0.166
ATGTCCCG | -0.103
GGGCCTAC | -0.188
CACTGGCG | -0.0439
CCTACAAA | -0.181
GCACCACC | -0.133
CGGTGAGA | 0.0625
AGACCCGG | -0.0434
ACCCGAGA | -0.0852
ACTGTGCT | 0.0906
CAATACAC | -0.00219
GACGACAA | 0.293
AAACGCTA | 0.00151
GTGTTACA | 0.036
AGGCGATA | -0.215
GCCGTAGC | -0.22
CGTCAGAG | -0.124
CTATTAAG | 0.0575
TCACGGAA | 0.162

Sequence | PBM E-score
AGCCGCCA | -0.371
CGGGCTCA | -0.288
AAGCATCC | -0.179
AGTAAAAT | 0.243
ATTGGAAA | 0.132
AACCACAC | 0.0524
TATCAATA | 0.257
CAATGCAA | 0.0602
GTACCTTA | 0.0785
GCCTAACA | 0.0251
CTGACAGA | 0.0639
CGGAGACC | -0.102
AGGGAGAT | -0.207
AAGTGAAC | 0.00184
CAAATGTG | 0.204
GTGCTCCA | -0.217
ACAAAAGC | 0.101
ATGATACC | 0.0927
AACGCTGC | -0.147
GCTCGTAA | 0.122
ACTCGGCA | -0.0783
GCCACTAA | 0.0425
GCACACAA | 0.131
AAGTGTCA | -0.124
AAGTAAAA | 0.153

Sequence | PBM E-score
AATCCAAG | 0.228
TACCTATA | 0.0923
TCCGGACA | -0.00786
AAGCCGAA | 0.186
ACTGACTA | -0.0389
GTTTAATA | 0.264
ACCTCTAT | 0.0597
CGCCGCCA | -0.218
CCGTACCC | -0.263
AAAACCTA | 0.259
CCACCTGA | -0.00429
ACGGCCTG | -0.189
GGAACGCC | -0.311
AAAATCAA | 0.221
AACACCGC | -0.118
AGTTCGGA | -0.0376
TGTCTTAA | 0.0535
ATCACTAC | 0.0771
ATTTGCAA | 0.131
CAGGCGGA | 0.122
GTCACTCA | 0.103
TAAAGAGA | 0.114
GCAATCTA | 0.0545
ACTGCGTG | -0.0658
TGATAACA | 0.176

Sequence | PBM E-score
CAGCGATC | -0.107
GCAGCTCA | -0.183
AGGTCGCA | -0.0726
GTTTCAAA | 0.157
AGGAGGGA | -0.232
AGATAAAT | 0.286
GACACCAC | -0.192
AATGTAGC | 0.0119
ACATACTC | 0.104
CGTAGTGA | -0.0527
ACGGCAGC | -0.211
CACGCACG | -0.0844
ACAGAGAT | 0.0912
ATTTTGCC | 0.19
ATTGGGTG | 0.153
TGCAGTAA | 0.0493
ACCGTGGG | -0.225
CATCGTGG | -0.198
ACTAGGCA | -0.118
GTCCGGAA | 0.19
AATATCTC | 0.232
GTCCTCGA | -0.0745
ACAGAGCA | 0.0556
ACTCATTA | 0.0768
ATATTGCG | 0.035

Sequence | PBM E-score
ACGGTGAT | -0.045
AGCAACAA | 0.205
CAACGCGC | 0.0456
AATACCCC | -0.23
CGCCTCAG | -0.182
ATTTGATC | 0.198
CCTATCTA | -0.115
AAAACCAG | 0.0856
ATGGAATA | 0.316
CCTAGAAC | 0.0862
TAATCCCA | -0.0193
ATCCGTCG | -0.00319
GATTGGAC | 0.00823
GAACTGAC | -0.0888
CTGGTCTC | -0.221
ACGTTGCC | -0.239
ACCCATTG | -0.00202
GCAACCAC | -0.0821
AGTTGGAG | -0.0321
ACAACGCA | -0.121
CCACTAAA | 0.11
AGAGCGAA | 0.125
